PubChem BioAssay (NCI)
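Compound exposure: 48 hours, 5 concentrations, 96-well plates. GI50: concentration for 50% inhibition of growth. TGI marks complete inhibition of growth.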

System: NCI-H322M lung
Assay: NCI anticancer screen, dose series, 48 h

O=C(c1ccccc1)n1ccc(-c2cc3cc(Br)ccc3oc2=O)n1
GI50: 4.51 µM | TGI: > 100 µM
